Measured values: PubChem BioAssay AID493014 (National Center for Advancing Translational Sciences (NCATS), 2011)
Hit rate of the full screen: of about 340,000 compounds, about 170 (0.05%) were called active. About 26% were inconclusive and are not listed. The call rests on the fitted dose curve; in most records, active means well fitted inhibition curve with a large enough effect in the signal ratio, with a control signal flat (not every such curve was filed as active); inconclusive means small, poorly fitted or top-dose-only effect, or effect the other way, or a change in a side signal; inactive means flat fitted curve, though single readings scatter; the % refers to the signal ratio. The entries are a selection whose mix differs from that of the whole data set.

Experiment: qHTS Assay to Find Inhibitors of Chronic Active B-Cell Receptor Signaling;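 on activity change, negative = inhibition: plate controls were basal doxycycline-induced cells for no effect and cells given 10 µM MG132 for full effect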
Settings: ABC-DLBCL IkBa-CBG/CBR reporter, luminescence ratio (green luciferase fused to IkBa over red control in TMD8 lymphoma cells), 4 h; series mostly up to 46.1 µM; activity change, negative = inhibition: at the top concentration
Text: NIH Molecular Libraries Probe Production Network [MLPCN] NIH Chemical Genomics Center [NCGC] MLPCN Grant: 1 R03 DA031086-01A1 PI Name: Dr. R. Eric Davis NCGC Assay Overview: Diffuse large B-cell lymphoma (DLBCL) is the most common category of non-Hodgkin lymphoma, with ~20,000 new cases per year in the United States. DLBCL should be regarded as a collection of different neoplasms. Microarray gene expression analysis has defined two principal types of DLBCL, named for their similarity to normal B cell stages or activation states: a germinal center B-cell (GCB) type, and an activated B-cell (ABC) type. In ABC-DLBCL, a constitutive high-level activity of the NF-kappaB family of transcription factors has been observed (1) and NF-kappaB target genes are more highly expressed in ABC primary tumors than in GCB tumors. Functional studies have shown a constitutive high-level activity of the IkappaB (inhibitor of kappa-B) kinase (IKK) complex. […] Further analysis of DLBCL primary tumors for NF-kappaB target gene expression imply that although CARD11 is required for constitutive IKK activity in all ABC-DLBCL lines, mutations in CARD11 may be the root cause of IKK activation only in lines or tumors with such mutations. In other words, CARD11 mutations may explain NF-kappaB activation in only 10% of ABC-DLBCL cases. […] This process has been termed 'chronic active BCR signaling' (CABS). The goal of this screen is to find small-molecule inhibitors of the CABS pathway found in ABC-DLBCL lines using a cell-based assay that measures IkappaBalpa stability, which has already been extensively validated in the OCI-Ly3 line (PubChem AID:445; REF: 4). […] The assay uses green (CBG68) and red (CBR) emitting beetle luciferases [Chroma-GloTM developed by Promega Corp.] where the green luciferase is fused to IkappaBalpha and the red luciferase is present in its native state. Both luciferase genes are stably present in the TMD8 human ABC DLBCL cell line, but their expression is under the control of tetracycline-inducible promoters. Following the addition of doxycycline to induce expression of the luciferases, the green luminescence in control cultures rises only slowly because the CBG fusion partner IkappaBalpha is targeted by IKK activity for rapid degradation. In contrast, green luminescence rises rapidly in the presence of proteasome inhibitors or IKK inhibitors. The rise in red luminescence of CBR is not affected by proteasome or IKK inhibitors, and serves as normalization for cell number and nonspecific effects. Compounds were screened as a concentration-titration series that ranged from 46 uM to 3 nM.
NCGC Assay Protocol Summary: Cells were seeded in 1536-well plates at 5000 cells/4uL in IMDM medium containing 0.5% FBS, w/o phenol red, 1% penicillin/streptomycin. Then, 23 nL of compounds or DMSO were delivered to each well using a pin tool. One uL 20ng/ml doxycycline was then dispensed into white solid 1536-well plates and the plates were incubated at 37C/5% C02 in a cell incubator for 4 hrs. Then 4 uL luminescent substrate mix (in-house prepared: 150 mM Tris-Cl, pH 7.6, 3 mM MgCl2, 1% Triton X-100, 5 mM DTT, 0.2 mM CoA, 0.15 mM ATP, 5 mM D-luciferin, final concentrations) was added to each well. The plate was incubated at r.t. for 10-15 min. The plates were measured on a ViewLux plate reader for green luminescence (540/20 nm filter) and red luminescence (618/8 nm filter). The green and red luminescent signals were corrected for red and green luminescence filter overlap using previously determined filter calibration constants (determined using the procedure outlined in the Promega Technical Manual; REF 4). The %Activity was determined from the ratio of corrected green/red luminescent values. MG132 were used as control. […] Red luminescent %Activity was normalized to the difference between red luminesence in basal cells (0%Activity) and zero luminescence (-100% Activity). […]
Potency means the concentration at half of the fitted maximal effect.

Row | Compound | activity change, negative = inhibition | Potency
1 | C=CC[C@H](CC(=O)N(CCO)Cc1ccccc1)C(=O)NCCOC(=O)[C@@H](CC=C)CC(=O)OC(C)(C)C | inactive: 2.24% | 
2 | COc1ccc(NC(=O)CN2C(=O)CSc3ccc(S(=O)(=O)N4CCCC4)cc32)cc1OC | inactive: -0.204% | 
3 | OCC[C@H]1C[C@H](O)[C@@H](O)[C@]2(OCc3ccccc32)O1 | inactive: -1.43% | 
4 | CC(=O)Nc1ccc(S(=O)(=O)NCCS(=O)(=O)N2CCN(c3ccccc3F)CC2)cc1 | inactive: -3.36% | 
5 | N#C/C(=C\c1cccc(NC(=O)c2ccccc2Cl)c1)C(=O)NCCc1ccccc1 |  | active: 20.6 µM
6 | CCc1ccc(/C=C2/SC(=S)N(CCC(=O)NCCCN3CCOCC3)C2=O)cc1 | inactive: -5.1% | 
7 | CC(C)(C)OC(=O)C[C@H]1C/C=C\C[C@@H](CC(=O)N(CCO)Cc2ccccc2)C(=O)NC[C@@H](c2ccccc2)OC1=O | inactive: -1.02% | 
8 | CC1CCCCN1Cc1c(O)ccc2c(=O)c(-c3ccc(Cl)cc3)coc12 (centres undefined) | inactive: 4.75% | 
9 | COc1ccc(/C=C2/SC(=O)N(CC(=O)NCCC(C)C)C2=O)cc1OC | inactive: -9.75% | 
10 | C[C@@H]1COC(=O)[C@@H](CC(=O)OC(C)(C)C)C/C=C\C[C@@H](CC(=O)NCCO)C(=O)N1 | inactive: -0.142% | 
11 | Cc1ccc(S(=O)(=O)/N=C2/NC(=O)/C(=C\c3ccccc3)S2)cc1 | inactive: -1.19% | 
12 | C=CCNC(=S)NNC(=O)COc1cccc(Cl)c1 |  | active: 17.8 µM
13 | C[C@@H]1O[C@@H](Oc2c(-c3cc(O)c(O)c(O)c3)oc3cc(O)cc(O)c3c2=O)[C@H](O)[C@H](O)[C@H]1O | inactive: -1.41% | 
14 | COc1cc2cc(C(=O)N3CCOCC3)cc(-c3ccc(C)cc3)c2cc1OC |  | active: 15.8 µM
15 | OCC[C@@H]1C[C@H](O)[C@@H](O)[C@@]2(CCc3ccccc3CO2)O1 | inactive: -0.223% | 
16 | CC(C)[C@H](NC(=O)N1c2ccccc2NC(=O)[C@@H]1C(C)C)C(=O)N[C@@H](Cc1ccccc1)C(=O)O | inactive: -12.9% | 
17 | OCC[C@@H]1C[C@@H](O)[C@H](O)[C@@]2(CCc3ccccc3CO2)O1 | inactive: -6.34% | 
18 | CS(=O)(=O)c1ccccc1-c1csc(N2CCC(C(N)=O)CC2)n1 | inactive: 5.37% | 
19 | OCc1ccnc2c(O)cccc12 |  | active: 6.31 µM
20 | O=S(=O)(c1ccc2c(c1)OCCO2)C1CCC(S(=O)(=O)c2c(F)cccc2F)CC1 (centres undefined) | inactive: 0.317% | 
21 | C[C@@H]1C[C@H]2[C@@H]3CCC4=CC(=O)C=C[C@]4(C)[C@@]3(F)[C@@H](O)C[C@]2(C)[C@@]1(O)C(=O)CO | inactive: -3.15% | 
22 | C[C@@H]1CC[C@@]2(O[C@H](CCO)C[C@@H](O)[C@@H]2O)O1 | inactive: -0.374% | 

Row | Compound | activity change, negative = inhibition | Potency
23 | COc1cccc(OCC(O)CN2CCN(c3ccccc3)CC2)c1 (centres undefined) | inactive: -1.9% | 
24 | COc1ccc(/C=C2/SC(c3ccc(C)cc3)=NC2=O)cc1OC | inactive: -4.4% | 
25 | CC1=NN(Cc2ccccc2)C(=O)C1C(c1ccc(Cl)cc1)C(C#N)C#N (centres undefined) |  | active: 20.6 µM
26 | C=CC[C@@H](CC(=O)OC(C)(C)C)C(=O)OC[C@@H]1CCCN1C(=O)[C@H](CC=C)CC(=O)NCCO | inactive: 5.57% | 
27 | O=C(Nc1cccc(F)c1)/C(=C\c1ccco1)NC(=O)c1ccco1 | inactive: -1.78% | 
28 | COc1cc(Nc2c3c(nc4ccccc24)CCC3)cc(OC)c1OC |  | active: 20 µM
29 | N#Cc1ccccc1NC(=O)CSC1=Nc2ccccc2C2CC=NN12 (centres undefined) |  | active: 20 µM
30 | CCn1c(C)cc(/C=C2\NC(=O)N(CC(=O)Nc3cccc(C)c3)C2=O)c1C | inactive: 4.16% | 
31 | Cc1cc(=O)oc2cc(OS(C)(=O)=O)ccc12 | inactive: -1.66% | 
32 | COc1ccc(C2=Nn3c(nnc3-c3ccc(OC)cc3)SC2)cc1 |  | active: 6.51 µM
33 | Clc1ccc(C2=Nn3c(nnc3-c3cc(-c4ccccc4)n[nH]3)SC2)cc1 |  | active: 5.17 µM
34 | COC(=O)C1=C(C)N(Cc2ccccc2)C(=NCc2cc(OC)c(OC)c(OC)c2)N[C@H]1c1cccc(F)c1 | inactive: -1.63% | 
35 | COc1ccc2cc(C(C)C(=O)O)ccc2c1 (centres undefined) | inactive: 18.8% | 
36 | OCC[C@H]1C[C@@H](O)[C@H](O)[C@@]2(OCc3ccccc32)O1 | inactive: -4.9% | 
37 | COc1ccc(/C=C2/CCc3ccccc3C2=O)cc1OC | inactive: -29% | 
38 | Cc1ccccc1/C=C/c1nc2ccccc2c(=O)n1Cc1ccccc1 | inactive: 0.863% | 
39 | CC(/C=C/C1(O)C(C)CC(O)CC1(C)C)OC1OC(CO)C(O)C(O)C1O (centres undefined) | inactive: 4.79% | 
40 | Cc1ccc(NC(=O)c2ccc(=O)n(CC(=O)Nc3ccccc3)n2)cc1 | inactive: 2.4% | 
41 | C[C@H]1COC(=O)[C@@H](CC(=O)OC(C)(C)C)C/C=C\C[C@@H](CC(=O)N[C@H](CO)Cc2ccccc2)C(=O)N1 | inactive: 0.673% | 
42 | CCOc1cccc(N2C(=O)CC(N(CCc3ccc(OC)c(OC)c3)C(=O)CC)C2=O)c1 (centres undefined) | inactive: -2.15% | 
43 | O=C(N/C(=C\c1ccc(Br)cc1)C(=O)N1CCCC1)c1ccccc1F | inactive: -3.57% | 
44 | C[C@@H]1O[C@@H](OC[C@@H]2O[C@H](Oc3c(-c4ccc(O)cc4)oc4cc(O)cc(O)c4c3=O)[C@@H](O)[C@H](O)[C@H]2O)[C@H](O)[C@H](O)[C@H]1O | inactive: 4.34% | 
